PubChem BioAssay AID624417 (National Center for Advancing Translational Sciences (NCATS), 2012)
Screen size: about 410,000 compounds; about 6,400 (1.6%) were called active. Inconclusive results, whose numbers are uncertain, are shown with a selection of clear calls. The call rests on the fitted dose curve; in most records, active means well fitted inhibition curve with a large enough effect; inconclusive means small, poorly fitted or top-dose-only effect; inactive means no such curve, though single readings can be large or run the other way. No potency is given beside an inconclusive call; the fits are too rough.
Further: nearly all actives have a fitted effect of over 55% in size.
On the % scale 0 is the no-effect control and ±100 the full control effect; potency means the concentration at half of the fitted maximal effect; tags describe the fitted curve by direction and shape.

Each compound was assayed against Glucagon-like peptide 1 receptor (Homo sapiens) (UniProt P43220) (assay: qHTS of GLP-1 Receptor Inverse Agonists (Inhibition Mode)). Conditions: HEK293 GLP-1R CRE-luciferase, luminescence, 24 h, GLP-1R form is constitutively active; activity change, negative = inhibition: at 38.3 µM (top of the series) unless noted.
UniProt P43220, sequence (P43220 whole entry, looked up): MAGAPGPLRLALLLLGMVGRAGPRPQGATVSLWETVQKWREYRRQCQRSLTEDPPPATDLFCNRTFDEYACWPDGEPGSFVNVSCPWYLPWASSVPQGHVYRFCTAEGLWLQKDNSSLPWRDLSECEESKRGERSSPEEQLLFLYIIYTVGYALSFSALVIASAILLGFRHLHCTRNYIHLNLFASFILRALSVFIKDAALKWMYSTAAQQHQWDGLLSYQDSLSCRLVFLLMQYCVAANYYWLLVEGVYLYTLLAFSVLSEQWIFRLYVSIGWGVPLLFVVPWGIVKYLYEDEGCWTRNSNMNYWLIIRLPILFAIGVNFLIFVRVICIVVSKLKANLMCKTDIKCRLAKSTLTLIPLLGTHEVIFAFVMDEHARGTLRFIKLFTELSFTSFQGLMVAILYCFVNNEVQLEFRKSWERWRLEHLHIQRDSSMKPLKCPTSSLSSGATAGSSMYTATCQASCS
Procedure, shortened: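 Readout was luciferase luminescence, measured 12 min after detection reagent at room temperature. Beforehand, GLP-1R reporter HEK293 cells had sat 12 h, then received compounds for 24 hr at 37 deg C.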
For `CN(c1ccccc1)S(=O)(=O)c1ccc(C(=O)NCc2ccccc2F)cc1`, the Potency was inconclusive [inhibitor, single point].
With `O=C(COc1ccc(Cl)cc1)NCCSCc1ccccc1Cl` the Potency was inconclusive [inhibitor, single point].
For `COc1cccc(CC(=NO)c2cccc(OC)c2)c1`, the Potency was inconclusive [inhibitor, single point].
In the case of `COc1cc(Cl)c(C)cc1NC(=O)CSC1=NCCS1`, the Potency was inconclusive [inhibitor, single point].
`Cc1nc2ccccc2c2oc(C(=O)NCC3COc4ccccc4O3)cc12` (stereo not given) was tested, and the Potency was inconclusive [inhibitor, single point].
In the case of `Cc1nnc(SCC(=O)N/N=C/c2cn(-c3ccccc3)nc2-c2ccccc2)n1-c1ccccc1`, the Potency was inconclusive [inhibitor, partial curve, poor fit].
In the case of `CC1CCN(CC(O)Cn2c3ccccc3c3ccccc32)CC1` (stereo not given), the Potency was inconclusive [inhibitor, single point].
In the case of `Cc1ccc(S(=O)(=O)N2CCN(CC3CC4C=CC3C4)CC2)cc1` (stereo not given), the Potency was inconclusive [inhibitor, single point].
For `CCC(CC)c1nc(C#N)c(NC(C)c2ccccc2)o1` (stereo not given), the “activity change, negative = inhibition” value was inactive: -8.75%.
With `CC12COC3(C(=O)Nc4ccc(F)cc4)CC1CCC32C` (stereo not given) the Potency was inconclusive [inhibitor, partial curve, poor fit].
In the case of `Cc1ccc(C(=O)CSc2ccc(-c3ccccc3)nn2)cc1`, the Potency was inconclusive [inhibitor, single point].
With `COc1ccccc1N(C)S(=O)(=O)c1ccc(C(=O)OCC(=O)N2CCC2)cc1` the Potency was inconclusive [inhibitor, partial curve, poor fit].
In the case of `COc1cc(C(=O)Nc2nc(-c3ccc(F)cc3)cs2)ccc1OCC(=O)N1CCOCC1`, the Potency was inconclusive [inhibitor, single point].
With `CC1CC(C)CN(CC(=O)NC(c2ccccc2)c2ccccc2)C1` (stereo not given) the Potency was inconclusive [inhibitor, partial curve, poor fit].
In the case of `O=C(COC(=O)c1ccccc1C(=O)c1ccccc1)Nc1cccc([N+](=O)[O-])c1`, the Potency was inconclusive [inhibitor, partial curve, poor fit].
`CC1(c2ccc(Cl)cc2)NC(=O)N(CC(=O)N2CCc3ccccc3C2)C1=O` (stereo not given) was tested, and the Potency was inconclusive [inhibitor, single point].
`CC(NC(=O)Nc1cccc(Cl)c1)C(c1cccs1)N1CCCC1` (stereo not given) was tested, and the Potency was inconclusive [inhibitor, partial curve, poor fit].
`O=C1c2ccccc2NC(c2c(Cl)cccc2Cl)N1Cc1ccccc1` (stereo not given) was tested, and the Potency was inconclusive [inhibitor, partial curve, poor fit].
`CCOC(=O)c1[nH]c2c(c1Cc1ccccc1OC)C(=O)CC(c1ccccc1)C2` (stereo not given) was tested, and the Potency was inconclusive [inhibitor, partial curve, poor fit].
For `CCCCn1c(=O)c2oc3ccccc3c2n(Cc2ccccc2C)c1=O`, the “activity change, negative = inhibition” value was inactive: 9.09%.
For `COc1ccc(CCNC(=O)c2cccc(S(=O)(=O)NC(C)c3ccccc3)c2)cc1` (stereo not given), the Potency was inconclusive [inhibitor, single point].
In the case of `COc1ccccc1/C=C/C=N/NC(=O)c1cc(-c2ccc(C)o2)[nH]n1`, the Potency was inconclusive [inhibitor, partial curve, poor fit].
`COc1cc(-c2nc(C(=O)NC3CCCCC3)cc3c2[nH]c2ccccc23)cc(OC)c1OC` was tested, and the Potency was inconclusive [inhibitor, partial curve, poor fit].
With `Cc1ccc(Cc2cn3cc(-c4ccccc4)nc3s2)cc1` the Potency was inconclusive [inhibitor, full curve].
With `Cc1ccc(C(=O)C(c2ccccc2)N2Cc3ccccc3C2=N)cc1` (stereo not given) the Potency was inconclusive [inhibitor, partial curve, poor fit].
For `Cc1ccc(S(=O)(=O)Nc2ccc(C(=O)OCC(=O)N(CCC#N)c3ccccc3)cc2)cc1C`, the Potency was inconclusive [inhibitor, partial curve, poor fit].
In the case of `O=C(CN1CCN(c2ccc(Cl)cc2)CC1)c1ccc2c(c1)OCO2`, the Potency was inconclusive [inhibitor, partial curve, poor fit].
For `COc1cnc(-c2ccccn2)nc1Oc1c(C)cccc1C`, the Potency was inconclusive [inhibitor, partial curve, poor fit].
For `COc1ccc(C2CC(c3c(-c4ccccc4)c4cc(Cl)ccc4[nH]c3=O)=NN2S(C)(=O)=O)cc1` (stereo not given), the Potency was inconclusive [inhibitor, partial curve, poor fit].
In the case of `Cc1ccc(NC(C(=O)c2ccccc2)c2ccccc2)cc1` (stereo not given), the Potency was inconclusive [inhibitor, full curve, poor fit].
`CCCN1CCc2c(sc(NC(=O)C3CCN(S(=O)(=O)c4cccs4)CC3)c2C(N)=O)C1` was tested, and the Potency was inconclusive [inhibitor, partial curve, poor fit].
With `O=C(NCc1cccc(Cl)c1)C1CCC(=O)N(CC2CCCCC2)C1` (stereo not given) the Potency was inconclusive [inhibitor, single point].
`COc1ccc(C(=O)Nc2cnc(NC(=O)c3cccs3)cc2C)cc1` was tested, and the Potency was inconclusive [inhibitor, single point].
For `COc1cccc(NC(=O)Cn2c(-c3cncs3)nc3ccccc32)c1`, the “activity change, negative = inhibition” value was inactive: -0.316%.
For `N/C(=N\OC(=O)c1ccc2c(c1)OCO2)c1cccnc1`, the “activity change, negative = inhibition” value was inactive: 47.1%.
For `CC(C)CNC(=S)NNC(=O)c1ccc2c(c1)OCO2`, the “activity change, negative = inhibition” value was inactive: 14.2%.
`O=C(Oc1cccc(Nc2ncnc3ccccc23)c1)c1ccccc1Cl` was tested, and the Potency was inconclusive [inhibitor, partial curve, poor fit].
For `Cn1cc(CNCc2cn(C)nc2-c2ccc(C3CCCCC3)cc2)cn1`, the Potency was active: 7.94 µM.
In the case of `COc1ccc2c(c1)C=CC1(O2)N(CCO)c2ccccc2C1(C)C` (stereo not given), the Potency was active: 2.51 µM.
In the case of `Clc1ccc(-c2ccc(CN3CCCCC3)o2)cc1`, the Potency was inconclusive [inhibitor, partial curve].
